# Experimental data reported in patent US12377072B2, “Modulators of GTPases and their use” (priority 2010, dated 2025).
# Key:
# [1] = tested on: breast cancer; conditions: presurgical administration; cited from earlier work
# [2] = tested on: Rho GTPase; conditions: ref [15]; cited from earlier work
# [3] = tested on: ovarian metastasis; conditions: xenograft model, ref [15]; cited from earlier work
# [4] = tested on: ovarian tumor cells; test: Planned ex vivo, 3D and organotypic studies of MCA formation, migration and invasion; assay type: cell-based, human; conditions: prediction for planned studies
# Procedure: To more closely approximate adhesive events that occur during intraperitoneal dissemination in vivo uses organotypic cultures. Organotypic cultures and 3DCI gels are generated as previously described [35; 128-131]. Briefly, type I collagen gels with embedded fibroblasts are overlaid with a confluent layer of mesothelial cells (LP9) in 24 well plates or transwells containing a porous filter. Alternatively, 3DCI gels are evaluated in the absence of mesothelial cells to mimic mesothelial cell retraction and exposure of the underlying FCM. Adhesion and invasion of cells labeled using membrane permeable fluorescent dyes (CMFDA, Invitrogen) are enumerated using fluorescent microscopy [128; 131]. Expansive growth in 3D collagen is measured after cell growth for 6-10 d using morphometric analysis of proliferative aggregate dimensions and quantitation of the number and size invasive projections, as described previously.
# The studies focus on the impact of identified small molecules on distinct mechanisms of metastasis in ovarian cancer (FIG. 7) and obtain detailed information adhesive events (cell:cell for MCAs or cell:mesothelium ex vivo and in vivo), invasion, growth and survival. […]
# [5] = molecular target: T1, Rac1 (Mus musculus, UniProt P63001); conditions: 10 mg/kg/day, cited from earlier work
# T1 construct: host or cells: mouse kidney
# [6] = rodents; cited from earlier work
# [7] = tested on: SKOV3ip cells; test: Ovarian tumor cell migration, modified Boyden chambers
# [8] = humans; cited from earlier work
# [9] = molecular target: Rac1 (Homo sapiens, UniProt P63000); test: GLISA cellular assay of activated Rac1 (Pak-binding plate assay); assay type: cell-based; conditions: OvCA cell lines (429 and 433)
# Procedure: (A) GLISA measures cellular effects of small molecules on Rac1. […] Equal cell lysate protein was assayed for activated Rac1 using a commercial, plate based Pak-binding assay according to manufacturer's instructions (GLISA, Cytoskeleton, Inc.). […] Rac1 crystal structure used to dock molecules via FRED (OpenEye).
# GLISA is extensively used for measuring EGF-stimulated Rac and Cdc42 activation in Swiss 3T3 cells in the presence and absence of test compounds. […] GLISAs in are highly specific, quantitative, can be performed with small sample sizes (<50 μg of cell lysate per assay, compared to 1-10 mg required for conventional PAK binding assay) and have excellent reproducibility. To assess the inhibitory effects of the small molecules in Table 2, preincubate cells for 15-60 min (times that establish detection of acute GTPase inhibition) with varying concentrations of each compound as described. NSC23766 serves as a positive control for Rac1 inhibition. […] Activated RhoA is also measured by GLISA following lysophosphatidic acid stimulation as an additional specificity control as needed.
# [10] = tested on: SKOV3ip cells; test: Intraperitoneal xenograft of GFP-tagged SKOV3ip cells in athymic nude mice; conditions: oral in dough, 10 mg/kg, 2 weeks of tumor growth
# [11] = tested on: COX enzymes; conditions: ref [22], cited from earlier work
# [12] = mouse, in vivo, po, 1 mg/kg; cited from earlier work
# [13] = ref [29]; cited from earlier work
smiles,measurement,setting,value
O=C(c1ccccc1)c1ccc2n1CCC2C(=O)O (racemic) [ketorolac],cancer recurrence rates,[1],reduced cancer recurrence rates
CC[C@H](C)C(=O)O[C@H]1C[C@@H](C)C=C2C=C[C@H](C)[C@H](CC[C@@H]3C[C@@H](O)CC(=O)O3)[C@H]21 [Lovastatin],Rho GTPase inhibition,[2],inhibit Rho GTPase
same,ovarian metastasis,[3],reduce ovarian metastasis
CCN(CC)CCCC(C)Nc1nc(C)cc(Nc2ccc3nc(C)cc(N)c3c2)n1 (centres unmarked) [NSC23766],"MCA formation, cell migration and cell invasion (predicted)",[4],will decrease
same,organ toxicity,[5]; 6 weeks continuous dosing,without apparent evidence of organ toxicity
same,Rac1 activity in target tissue (kidney),[5]; osmotic minipump,reduced Rac1 activity
O=C(c1ccccc1)c1ccc2n1CC[C@H]2C(=O)O [R-ketorolac],interconversion between R- and S-forms,[6],little interconversion
same,inhibition of ovarian tumor cell migration,[7]; 24 h,inhibits
same,IC50,"[7]; read-out: IC50 ovarian tumor cell migration, FIG. 4B",~10 µM
same,interconversion between R- and S-forms,[8],none detectable
COc1ccc2cc([C@@H](C)C(=O)O)ccc2c1 [R-naproxen],inhibition of Rac1 GTPase activity,[9],inhibits
same,effect on tumor number versus placebo (words),[10],decreased the number of implanted tumors
same,effect on tumor number versus placebo (words),[10]; listed as R-Naproxen,reduces tumor number
same,inhibition of COX enzymes,[11]; >25 μM,10-20%
O=C(c1ccccc1)c1ccc2n1CC[C@@H]2C(=O)O [S-ketorolac],GI toxicity,[12],"dose dependent and low, but detectable"
COc1ccc2cc([C@H](C)C(=O)O)ccc2c1 [S-naproxen],epimerization,[13],not significantly subject to epimerization
same,inhibitory activity against COX enzymes,[11],50-70%

# Where two headings read alike, the source gives them in different places.
